Experimental data from publication PMC4484057.
Residue numbers refer to the chain shown, from its start. Names and notes keep the numbering of the source. No constants are given. Whether binding was seen depends on the method and setting. Some binding calls cover weakened binding; strength is not graded here. Tags and fused reporters may be left off the sequences shown. Blank lines part the entries; values can stand above or below the binder they belong to.

Amino acid sequences for entries named in this document (tags omitted).
UniProt P08753: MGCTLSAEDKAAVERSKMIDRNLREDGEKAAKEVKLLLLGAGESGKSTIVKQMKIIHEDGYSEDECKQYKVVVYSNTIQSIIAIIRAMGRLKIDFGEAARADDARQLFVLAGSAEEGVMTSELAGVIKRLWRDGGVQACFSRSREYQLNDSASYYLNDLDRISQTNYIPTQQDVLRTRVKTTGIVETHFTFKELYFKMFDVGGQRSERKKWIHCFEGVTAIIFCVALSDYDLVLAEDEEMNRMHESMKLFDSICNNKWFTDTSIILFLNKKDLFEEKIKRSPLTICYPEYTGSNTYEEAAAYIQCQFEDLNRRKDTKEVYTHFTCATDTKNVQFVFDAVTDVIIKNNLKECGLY
UniProt P59215: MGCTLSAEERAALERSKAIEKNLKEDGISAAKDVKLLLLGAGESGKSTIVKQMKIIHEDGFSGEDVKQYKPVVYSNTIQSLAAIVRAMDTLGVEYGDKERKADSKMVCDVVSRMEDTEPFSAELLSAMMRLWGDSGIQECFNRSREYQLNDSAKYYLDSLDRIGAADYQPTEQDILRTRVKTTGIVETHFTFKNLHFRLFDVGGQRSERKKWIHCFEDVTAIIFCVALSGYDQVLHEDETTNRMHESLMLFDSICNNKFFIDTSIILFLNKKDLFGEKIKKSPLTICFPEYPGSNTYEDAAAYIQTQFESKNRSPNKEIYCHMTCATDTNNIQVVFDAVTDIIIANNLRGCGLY

How the values were obtained:
GST-Gαi3 (rat) [1] = target: GST-Gαi3 (rat) (UniProt P08753); test: condition: only GST-Gαi3 loaded with GDP/AlF4- (active); pull-down; as a2, but GST-Gαi3 preloaded with 30 µM GDP/30 µM AlCl3/10 mM NaF (GDP + AlF4-, active); both purified
GST-Gαo (rat) = GST-Gαo (rat) (UniProt P59215); test: pull-down; GST-Gα protein (5 µg) preloaded with GDP (inactive) on glutathione beads; purified His-Daple-CT (3 µg); 4 hr at 4°C; 50 mM Tris-HCl pH 7.4, 100 mM NaCl, 0.4% NP-40, 10 mM MgCl2, 5 mM EDTA, 30 µM GDP, 2 mM DTT; immunoblot; both purified
GST-Gαi3 (rat) [2] = target: GST-Gαi3 (rat) (UniProt P08753); test: condition: only GST-Gαi3 loaded with GTPγS (active); pull-down; as a2, but GST-Gαi3 preloaded with 30 µM GTPγS (active); both purified
GST-Gαi3 (rat) [3] = target: GST-Gαi3 (rat) (UniProt P08753); test: pull-down; GST-Gα protein (5 µg) preloaded with GDP (inactive) on glutathione beads; purified His-Daple-CT (3 µg); 4 hr at 4°C; 50 mM Tris-HCl pH 7.4, 100 mM NaCl, 0.4% NP-40, 10 mM MgCl2, 5 mM EDTA, 30 µM GDP, 2 mM DTT; immunoblot; both purified
GST-Gαi3 (rat) [4] = target: GST-Gαi3 (rat) (UniProt P08753); test: pull-down; competition: GST-Gαi3 preloaded with GDP on glutathione-agarose beads (∼0.3 mM as printed) with a fixed concentration (∼0.2 mM as printed) of His-Daple-CT and increasing KB-752 or His-GIV-CT; anti-His immunoblot; both purified

- binding (GST-Gαi3 (rat) [1]): no binding
- binding (GST-Gαo (rat)): no binding
- binding (GST-Gαi3 (rat) [2]): no binding
B1: His-Daple-CT (aa 1650–2028) (domain or fragment, UniProt Q9P219-1 1650-2028)
chain: GTAPPYVGVRPCSASPSSEMVTLEEFLEESNRSSPTHDTPSCRDDLLSDYFRKASDPPAIGGQPGPPAKKEGAKMPTNFVAPTVKMAAPTSEGRPLKPGQYVKPNFRLTEAEAPPSVAPRQAQPPQSLSLGRPRQAPVPPASHAPASRSASLSRAFSLASADLLRASGPEACKQESPQKLGAPEALGGRETGSHTLQSPAPPSSHSLARERTPLVGKAGSSCQGPGPRSRPLDTRRFSLAPPKEERLAPLHQSATAPAIATAGAGAAAAGSGSNSQLLHFSPAAAPAARTKPKAPPRSGEVATITPVRAGLSLSEGDGVPGQGCSEGLPAKSPGRSPDLAPHLGRALEDCSRGSVSKSSPASPEPGGDPQTVWYEYGCV

- binding (GST-Gαi3 (rat) [3]): no binding
B2: His-Daple-CT F1675A (aa 1650–2028) (domain or fragment, UniProt Q9P219-1 1650-2028)
chain: B1 chain with F26A

- binding (GST-Gαi3 (rat) [4]): binds
B3: His-GIV-CT (aa 1660–1870) (domain or fragment, UniProt Q3V6T2 1660-1870)
chain: ISETLESRHHKIKTGSPGSEVVTLQQFLEESNKLTSVQIKSSSQENLLDEVMKSLSVSSDFLGKDKPVSCGLARSVSGKTPGDFYDRRTTKPEFLRPGPRKTEDTYFISSAGKPTPGTQGKIKLVKESSLSRQSKDSNPYATLPRASSVISTAEGTTRRTSIHDFLTKDSRLPISVDSPPAAADSNTTAASNVDKVQESRNSKSRSREQQS
